In all, about 33,000 sequences were measured (“E-score (-0.5 to 0.5)”: median about -0.021, highest 2% from about 0.32 on). The list shows a part of the results.

The target of this assay is T1, Zap1 (UniProt P47043).
T1 sequence: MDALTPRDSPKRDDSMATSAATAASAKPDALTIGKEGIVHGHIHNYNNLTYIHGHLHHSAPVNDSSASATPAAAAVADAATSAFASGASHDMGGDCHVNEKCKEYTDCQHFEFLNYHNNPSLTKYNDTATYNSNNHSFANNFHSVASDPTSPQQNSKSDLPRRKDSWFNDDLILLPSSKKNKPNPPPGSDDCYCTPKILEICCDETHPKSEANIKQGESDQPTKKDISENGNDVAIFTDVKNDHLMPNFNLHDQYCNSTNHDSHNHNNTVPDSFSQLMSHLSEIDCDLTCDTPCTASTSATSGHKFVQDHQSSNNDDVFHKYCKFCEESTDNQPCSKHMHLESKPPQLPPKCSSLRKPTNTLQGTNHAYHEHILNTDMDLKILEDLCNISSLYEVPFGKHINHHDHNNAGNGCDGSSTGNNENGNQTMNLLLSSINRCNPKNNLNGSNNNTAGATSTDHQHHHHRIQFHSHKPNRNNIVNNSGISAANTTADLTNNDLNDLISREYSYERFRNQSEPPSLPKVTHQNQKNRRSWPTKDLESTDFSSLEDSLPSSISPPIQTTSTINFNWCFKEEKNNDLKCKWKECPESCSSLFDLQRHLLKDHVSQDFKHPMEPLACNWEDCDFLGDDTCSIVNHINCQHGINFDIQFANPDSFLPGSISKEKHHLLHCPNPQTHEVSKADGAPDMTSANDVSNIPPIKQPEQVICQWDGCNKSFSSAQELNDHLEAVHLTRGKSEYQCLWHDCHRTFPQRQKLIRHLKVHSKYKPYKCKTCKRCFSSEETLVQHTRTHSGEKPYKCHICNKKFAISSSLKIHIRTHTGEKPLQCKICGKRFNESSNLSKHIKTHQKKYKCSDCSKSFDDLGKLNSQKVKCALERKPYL
Kind of assay: PBM E-score (8-mer binding enrichment) (E-score (-0.5 to 0.5)); higher = stronger / more preferred TF binding; most listed sequences are background and not binding sites. The settings on record: protein concentration: 200 nM; construct: GST-full length. The gist of the method: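 Using PURExpress in vitro transcription/translation, GST-tagged yeast transcription factors were made in full-length or DNA-binding-domain form. These were applied at about 100-200 nM to double-stranded universal all-10-mer Agilent arrays, and bound protein was detected with fluorescent anti-GST. Scans were normalised with masliner before the Universal PBM Analysis Suite assigned E-scores to ungapped eight-base words pooled with their reverse complements.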
In the case of GACCACCA, the “PBM E-score” value is 0.201.
Consider GTGCCCCA, for which the “PBM E-score” value was -0.115.
To AATTTCTA belongs 0.189; to AAACCCGG, 0.261.
To TCAGACAA belongs -0.0468.
Under CAGATAAA stands -0.0391; under GGGCGATA, -0.265.
Consider GTTGCCAA, for which the “PBM E-score” value was determined as 0.0303.
To AATATCGG belongs 0.192; to CGGTCTGA, 0.0371; to AATCGCAG, -0.0435.
Under CGAGGAAC stands 0.0111; under ATTCTGGA, 0.116; under AGAAATGC, 0.0327.
As for ACTATTAA, the “PBM E-score” value amounted to 0.204.
Turning to ATTAGTCA, the “PBM E-score” value is 0.119.
To AAGCAGCA belongs -0.00523; to ACGCGATA, -0.149.
On to CAGTTGGC, for which the “PBM E-score” value is -0.136.
Regarding GGCCATTA, the “PBM E-score” value turned out to be 0.212.
Under CGTGTACC stands 0.0293; under CACATACG, -0.147.
Turning to CACGCTTC, the “PBM E-score” value was -0.264.
As to CTGTTCAA, the “PBM E-score” value was -0.0276.
For the sequence GTGCGCTA, the “PBM E-score” value was -0.079.
As for AAATAGCT, the “PBM E-score” value was -0.141.
To CCCATTTC belongs -0.0636.
Consider AAACGACT, for which the “PBM E-score” value was determined as 0.0428.
For the sequence CTATCATA, the “PBM E-score” value was determined as 0.109.
On to GCCATTTA, for which the “PBM E-score” value was 0.135.
On to CAGCATCA, for which the “PBM E-score” value is -0.138.
As for TATTTTGA, the “PBM E-score” value came out at 0.00392.
With CAAAGGCA, the “PBM E-score” value was -0.122.
For TCGTCCAA, the “PBM E-score” value is -0.0362.
Under GCATGCCA stands -0.259; under ATGGGAAT, -0.246.
As to CAAGTTAA, the “PBM E-score” value came out at 0.0614.
ACTATACT: the “PBM E-score” value stood at 0.0601.
With TTCCCCAA, the “PBM E-score” value is -0.0457.
Take CGGTACCC: the “PBM E-score” value was 0.414.
To CCGCATGC belongs -0.0963; to AACTGGCA, -0.0324; to CCCAGCAG, 0.0983.
On to AACTCAAT, for which the “PBM E-score” value is 0.106.
On to AACAATGG, for which the “PBM E-score” value worked out at 0.0549.
To GCGAATAC belongs -0.0559.
To TAGACAAA belongs -0.0412; to AATGTTCG, -0.0873; to CCAGGCCA, -0.163.
Under ATCTCTAG stands -0.145; under ATACTTTA, 0.0993; under CCGTCCCC, -0.196.
For the sequence CTGCATAC, the “PBM E-score” value was -0.0233.
Under CTAGTTTA stands 0.182; under CGCGCTTA, 0.0235; under CATTTACA, -0.0536.
Under ACTCATAT stands -0.0639.
Consider AAAGTGGA, for which the “PBM E-score” value was -0.0378.
To AGGACGAG belongs -0.115; to GGTTGATA, 0.138; to AATTGTGT, -0.141.
With GAGAGGCC, the “PBM E-score” value is -0.138.
To ACTTGACG belongs -0.0912; to ACCCTCTG, 0.313; to AAGGCCTA, -0.0221.
Consider CTTTGCGA, for which the “PBM E-score” value was 0.169.
With CGTGTTAG, the “PBM E-score” value is 0.0187.
As for GCATGTTA, the “PBM E-score” value is -0.0356.
Under GAAAGGTC stands 0.294.
Under ACGACGTA stands -0.14; under CCGGTAAC, 0.316.
Take GCGCAACA: the “PBM E-score” value was -0.133.
For ATACGGTG, the “PBM E-score” value worked out at 0.181.
Under AACTACCT stands 0.286; under ACGATGCC, -0.285; under ATCAACAA, 0.186.
For the sequence CTAAAGCC, the “PBM E-score” value was -0.218.
Turning to ATAAGTTG, the “PBM E-score” value is -0.0925.
Regarding AGGAAGTG, the “PBM E-score” value is 0.0225.
Take GTACGTGA: the “PBM E-score” value was -0.0853.
To GGCTGAAC belongs -0.0821; to GCGTCTTA, -0.193; to ATGAAATG, -0.0399.
To CCGACACC belongs -0.2.
To ACGAGCGT belongs -0.0674.
Take CGTCTGGA: the “PBM E-score” value was -0.0902.

The values are drawn from the supplement of paper PMC3334620.
